Sequences and labels used below:
B1: CACGCGC (DNA:RNA)
RNA: GGGAGACCGGAAUUCAGAUUGUCCCACGCGCUUAAAUCCCGUCGUAGCCACCA
DNA 1: CAATCTGAATTCCGGTCTCCC
DNA 2: TGGTGGCTACGACGGGATT
B2: CCCUUGC (DNA:RNA)
RNA: B1 RNA with A26C, G28U, C29U
DNA 1: CAATCTGAATTCCGGTCTCCC
DNA 2: TGGTGGCTACGACGGGATT
B3: AGUUCUC (DNA:RNA)
RNA: B1 RNA with C25A, A26G, C27U, G28U, G30U
DNA 1: CAATCTGAATTCCGGTCTCCC
DNA 2: TGGTGGCTACGACGGGATT
B4: AUUCAAU (DNA:RNA)
RNA: GGGAGACCGGAAUUCAGAUUGUCCAUUCAAUUUAAAUCCCGUCGUAGCCACCA
DNA 1: CAATCTGAATTCCGGTCTCCC
DNA 2: TGGTGGCTACGACGGGATT
B5: CGGGGCU (DNA:RNA)
RNA: B1 RNA with A26G, C27G, C29G, G30C, C31U
DNA 1: CAATCTGAATTCCGGTCTCCC
DNA 2: TGGTGGCTACGACGGGATT
B6: AACCGCG (DNA:RNA)
RNA: B4 RNA with U26A, U27C, A29G, A30C, U31G
DNA 1: CAATCTGAATTCCGGTCTCCC
DNA 2: TGGTGGCTACGACGGGATT
B7: ACUCGAU (DNA:RNA)
RNA: B4 RNA with U26C, A29G
DNA 1: CAATCTGAATTCCGGTCTCCC
DNA 2: TGGTGGCTACGACGGGATT
B8: GCCAACU (DNA:RNA)
RNA: B4 RNA with A25G, U26C, U27C, C28A, A30C
DNA 1: CAATCTGAATTCCGGTCTCCC
DNA 2: TGGTGGCTACGACGGGATT
B9: AGGGGCU (DNA:RNA)
RNA: B4 RNA with U26G, U27G, C28G, A29G, A30C
DNA 1: CAATCTGAATTCCGGTCTCCC
DNA 2: TGGTGGCTACGACGGGATT

Substitutions are numbered along the chain they refer to; changes in the protein carry UniProt numbers. Some of the results follow.

The assay has as its target T1, RBFOX1 RRM RbFoxmut (Fox-RRM*) (Homo sapiens, UniProt Q9NWB1 109-208, R118D;E147R;N151S;E152T).
T1 sequence: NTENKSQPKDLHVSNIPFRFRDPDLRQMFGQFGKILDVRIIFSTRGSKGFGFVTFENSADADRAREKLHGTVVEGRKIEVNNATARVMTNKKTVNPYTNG
The assay is described as follows: EMSA; HiTS-Eq, 1 nM pool, 10 min; buffer printed only for the single-RNA assays: 10 mM Tris pH 7.5, 150 mM NaCl, 3.4 mM EDTA, 0.001% NP-40, 30 C. Particulars: tags: His6 N-terminal (pET28a); label: 5' 32P. In a few lines:
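A pool of RNA with 7 randomized nucleotides, 5′-radiolabelled and with DNA-annealed flanks, was equilibrated at 1 nM for 10 min in 50 µL with purified RbFox RRM, wild type or mutant, across increasing protein concentrations. Free RNA was separated by 8% native PAGE, excised, reverse-transcribed, barcoded by PCR and sequenced. Relative association constants were obtained from read-count changes of each RNA species versus the control reaction and normalised to the cognate motif.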
(In general: A gel shift assay detects complexes by their altered migration in electrophoresis.)
For the molecule B1, the binding signal is 0.11 KA relative to UGCAUGU.
The same measure for B2: 0.11 KA relative to UGCAUGU; for B3: 0.0586 KA relative to UGCAUGU.
The same measure for B4: 0.0679 KA relative to UGCAUGU; for B5: 0.0906 KA relative to UGCAUGU; for B6: 0.0985 KA relative to UGCAUGU.
The same measure for B7: 0.0604 KA relative to UGCAUGU.
For the molecule B8, the binding signal was 0.0589 KA relative to UGCAUGU.
The same measure for B9: 0.113 KA relative to UGCAUGU.

The values are drawn from publication PMC9911399, “Two distinct binding modes provide the RNA-binding protein RbFox with extraordinary sequence specificity”.
